Measured values published in article PMC4336329 (PLoS ONE, 2015).
The campaign covered roughly 310,000 compounds. About 14,000 (4.5%) showed an effect of 50% or more. The effect is printed as a negative number. The list shows a part of the results.

The compounds below were run against human ether-à-go-go-related gene (hERG) potassium channel (human, UniProt Q12809) (assay: primary screen, population patch clamp on CHO cells stably expressing hERG).
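Note: peak tail current of the secondary pulse compared with the same well before compound.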

human ether-à-go-go-related gene (hERG) potassium channel, sequence (Q12809 whole entry, looked up): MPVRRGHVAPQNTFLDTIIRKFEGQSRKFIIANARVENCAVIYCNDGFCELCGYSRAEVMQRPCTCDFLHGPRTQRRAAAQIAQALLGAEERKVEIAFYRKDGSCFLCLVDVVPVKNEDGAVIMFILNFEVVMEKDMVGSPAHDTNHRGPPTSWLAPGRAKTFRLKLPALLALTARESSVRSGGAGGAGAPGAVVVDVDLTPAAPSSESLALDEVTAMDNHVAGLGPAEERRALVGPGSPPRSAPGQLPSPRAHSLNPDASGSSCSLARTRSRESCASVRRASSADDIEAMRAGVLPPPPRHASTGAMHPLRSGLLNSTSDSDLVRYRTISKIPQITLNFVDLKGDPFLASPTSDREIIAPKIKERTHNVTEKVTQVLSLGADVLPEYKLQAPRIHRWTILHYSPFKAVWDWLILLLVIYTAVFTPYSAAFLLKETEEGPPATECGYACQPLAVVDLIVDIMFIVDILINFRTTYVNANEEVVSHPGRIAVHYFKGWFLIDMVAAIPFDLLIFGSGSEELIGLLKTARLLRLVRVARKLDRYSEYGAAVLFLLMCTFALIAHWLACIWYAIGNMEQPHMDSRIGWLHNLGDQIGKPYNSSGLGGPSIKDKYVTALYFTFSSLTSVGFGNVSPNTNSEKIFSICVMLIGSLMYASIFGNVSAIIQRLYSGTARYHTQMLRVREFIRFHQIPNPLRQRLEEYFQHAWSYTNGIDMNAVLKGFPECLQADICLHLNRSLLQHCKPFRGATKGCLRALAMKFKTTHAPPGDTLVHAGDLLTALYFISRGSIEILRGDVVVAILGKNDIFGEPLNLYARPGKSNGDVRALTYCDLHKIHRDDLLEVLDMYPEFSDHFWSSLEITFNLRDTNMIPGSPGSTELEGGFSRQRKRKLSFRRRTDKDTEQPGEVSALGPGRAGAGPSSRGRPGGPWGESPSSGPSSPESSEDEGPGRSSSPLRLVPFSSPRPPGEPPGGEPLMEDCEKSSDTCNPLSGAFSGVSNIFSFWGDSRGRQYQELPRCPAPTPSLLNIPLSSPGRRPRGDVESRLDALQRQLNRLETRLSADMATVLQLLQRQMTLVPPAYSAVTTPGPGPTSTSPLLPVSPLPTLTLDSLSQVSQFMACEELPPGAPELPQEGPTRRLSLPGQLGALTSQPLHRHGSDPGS

SMILES	hERG current change (%, negative = inhibition) at 10uM [%]
CCCN(CC(=O)Nc1ccccc1C)C(=O)C1CCN(S(=O)(=O)c2cccc(C(F)(F)F)c2)CC1	-14.9
CCOC(=O)N/N=C/c1cn(CCCOc2ccccc2)c2ccccc12	21.4
O=C(CC1SC(=O)N(c2ccccc2)C1=O)Nc1ccc(Br)cc1 (stereo not drawn)	16.1
CCOC(=O)C1CCCN(C(=O)C(=O)c2cn(CC(=O)N3CCOCC3)c3ccccc23)C1 (stereo not drawn)	-2.74
COC(=O)c1ccc(Cn2nc(C)cc2C)cc1	17.6
CCOC(=O)c1c(NC(C)=O)sc2c(OC(C)=O)cccc12	8.8
Cc1ccc(OCC(=O)N(Cc2ccco2)C2CCS(=O)(=O)C2)cc1C (stereo not drawn)	-38.8
CC1CCC(=O)N(CCSc2ccccc2)CC1 (stereo not drawn)	-9.05
Cc1ccccc1NC(=O)Cn1cc(C(=O)C2CC2)c2ccccc21	10.2
COc1ccc(S(=O)(=O)N(C)CC(=O)Nc2ccccc2SC)cc1Cl	7.69
CCOC(=O)Cc1csc(NC(=O)c2ccc([N+](=O)[O-])cc2[N+](=O)[O-])n1	-0.405
COc1cccc(C2=CC(=O)CC(c3ccco3)C2)c1 (stereo not drawn)	-16.1
COc1ccc2c(c1)O/C(=C\c1ccccc1C)C2=O	2.02
Cc1ccc(O)c(N=Nc2ccc(S(=O)(=O)N3CCCC3)cc2)c1	32.7
CCOC(=O)C1C(=O)NC(N2CCN(Cc3ccccc3)CC2)=NC1c1ccccc1 (stereo not drawn)	-13.2
CCOc1ccccc1/C=N/n1nnnc1N	15
CCN(CC(=O)Nc1ccccc1C(F)(F)F)C(=O)c1cccc(N2C(=O)CCC2=O)c1	-3.81
Cc1cccc(NC(=O)CSCC(=O)N2CCN(c3cccc(C(F)(F)F)c3)CC2)c1	-21.8
COc1ccccc1N1CCN(C(=O)C(=O)c2c(C)n(C)c3ccccc23)CC1	-8.62

SMILES	hERG current change (%, negative = inhibition) at 10uM [%]
COc1cccc2c(=O)c3cccc(N)c3[nH]c12	8.24
CCOC(=O)C(NC(=O)Nc1cccc(C)n1)(OCC(F)(F)F)C(F)(F)F (stereo not drawn)	5.06
Cc1cc(C)n(C(=O)c2ccc(Cn3nc(C)c(Br)c3C)o2)n1	-1.03
COc1cc2cnc(-c3ccccc3)c(-c3cccc(C(F)(F)F)c3)c2cc1OC	19
O=C(Cc1ccc(S(=O)(=O)N2CCOCC2)s1)NC1CCCCC1	-25.4
Cc1ccc(/C=C/C(=O)N2CCCC(C(N)=O)C2)o1 (stereo not drawn)	-8.59
Brc1ccc2ncnc(NCc3ccco3)c2c1	-39.5
CC(C)NC(=S)N1CCN(c2ncccn2)CC1	-0.598
COc1ccc2c(c1)c(C(O)CN1CCC(Cc3ccccc3)CC1)c(C)n2C (stereo not drawn)	-71
COc1ccc(NC(=O)N(Cc2cc3cc(C)ccc3[nH]c2=O)CC2CCCO2)cc1 (stereo not drawn)	-25.2
CC(=O)c1ccc(Sc2ccccc2N)c([N+](=O)[O-])c1	-14.7
COc1ccc(CN2[C@@H](CC(C)=O)c3cc(C(F)(F)F)ccc3S2(=O)=O)cc1	-33.7
COc1ccc(-n2c(=O)c3ccccc3n(CC(=O)NCC3CCCO3)c2=O)cc1 (stereo not drawn)	13.4
CCN(CC)c1ccc(C(NC(C)=O)NC(C)=O)cc1	2.87
CCOc1ccccc1NC(=O)CSc1nc2c(c(=O)n1C)SC(C)C2 (stereo not drawn)	-38.2
Cc1ccc(CCc2nnc(SCC(=O)Nc3cc(Cl)ccc3Cl)n2-c2ccccc2)o1	-2.79
O=C(NC(Cc1ccccc1)c1ccc2c(c1)OCCCO2)c1ccccc1 (stereo not drawn)	19.1
CN1CCCN(S(=O)(=O)c2cccc(C#N)c2)CC1.Cl	6.61
O=C(OCc1cc(Cl)ccc1OC(F)F)c1cccnc1	-7.25

SMILES	hERG current change (%, negative = inhibition) at 10uM [%]
CCOC(=O)c1cc(C#N)c(SC)nc1C	13.1
CN(C)c1ccc(C(=O)OCc2ccc(Br)cc2)cc1	12.5
COc1ccc(CC(=O)Nc2cc(C)on2)cc1OC	2.2
COc1ccc(CCNc2ncnc3sccc23)cc1OC	12.9
COc1ccc(NC2=Nc3ccccc3CC2)cc1	-28.4
CC(C)(C)S(=O)(=O)/C(C#N)=N/Nc1ccc(S(N)(=O)=O)cc1	15
O=C1C2C3C=CC(C3)C2C(=O)N1c1ccccc1 (stereo not drawn)	9
Cc1ccc(C(C(=O)NCc2ccccc2)N(Cc2cccs2)C(=O)c2ccc3c(c2)OCCO3)cc1 (stereo not drawn)	-1.52
Cc1sc(NC(=O)c2ccco2)c(CN2CCC(C)CC2)c1C	-16.2
CC(C)CC(NC=O)C(=O)O.COc1cc2c(cc1OC)C13CCN4CC5=CCOC6CC(=O)N2C1C6C5CC43 (stereo not drawn)	3.18
Nc1ccc[n+](CC(=O)c2ccccc2)c1.[Br-]	-9.03
O=C(/C=C/c1ccccc1)NC1CCSC1=O (stereo not drawn)	8.98
NS(=O)(=O)Oc1ccccc1	10.1
COc1ccc(NC(=O)C2CCCN2C(=O)NC2CCCCC2)cc1 (stereo not drawn)	-2.82
CCn1c(=O)n(CC(=O)Nc2ccc(F)cc2)c(=O)c2ccccc21	-6.08
O=C(CSc1nnc(Cc2ccccc2)o1)NC1CCCCC1	-2.76
CCOC(=O)Cn1nnc(-c2cc(OC)c(OC)c(OC)c2)n1	5.43
COc1cc2c3cc1Oc1cc(ccc1O)C[C@@H]1c4c(cc(OC)c(O)c4Oc4cccc(c4)C[C@@H]3N(C)CC2)CC[N+]1(C)C.Cl.O.[Cl-]	9.2
O=C(CCn1c(=S)[nH]c2cc3c(cc2c1=O)OCO3)NCc1ccc(Cl)cc1	26
